About 9,900 (2.8%) of roughly 350,000 compounds were called active. The shares of active, inactive and inconclusive entries below differ from those in the screen. Calls come from the whole dose curve; as a rule, active = well fitted activation curve with a large enough effect; inconclusive = small, poorly fitted or top-dose-only effect; inactive = no such curve, though single readings can be large or run the other way. Potencies of inconclusive entries are left out as doubtful fits.
Assay: A quantitative high throughput screen for small molecules that induce DNA re-replication in MCF 10a normal breast cells. For activity, positive = re-replication: % of control where 0% means no effect. Note: nearly all actives have a fitted effect of over 50% in size.
Conditions: MCF 10A DNA re-replication, Hoechst nuclear intensity, 48 h; activity, positive = re-replication: at 46.1 µM (top of the series)
With `NS(=O)(=O)c1ccc(CNC(=O)c2sccc2-c2ccccc2)cc1` the “activity, positive = re-replication” value was inactive: 9.08%.
For `CC(C)C[C@H](NC(=O)c1[nH]cnc1C(=O)N[C@@H](Cc1ccccc1)C(=O)OC(C)(C)C)C(=O)OCc1ccccc1`, the Potency was inconclusive [activator, full curve, poor fit].
For `Cc1noc(C)c1COC(=O)/C=C/c1ccc(Cl)cc1`, the Potency was inconclusive [activator, partial curve].
In the case of `CC(C(=O)Nc1ccc(C#N)cc1)N(C)CC(=O)Nc1ccccc1Br` (stereo unspecified), the “activity, positive = re-replication” value is reported as inactive: 10.9%.
In the case of `Cc1ccc2cc(C#N)c(N3CCCC3)nc2c1C`, the Potency is reported as inconclusive [activator, single point].
For `COc1cc(NC(=O)CN2CCCCCC2)cc(OC)c1`, the “activity, positive = re-replication” value was inactive: 0.779%.
In the case of `CC(c1ccco1)N(C(=O)C12CC3CC(CC(C)(C3)C1)C2)c1ccccn1` (stereo unspecified), the “activity, positive = re-replication” value is reported as inactive: 10.5%.
In the case of `Cc1cc2ccccc2n1CCNC(=O)c1ccccc1`, the Potency is reported as inconclusive [activator, partial curve, poor fit].
In the case of `COc1cccc(CC(=O)Nc2ccc3c(c2)CCC3)c1`, the “activity, positive = re-replication” value is reported as inactive: -0.0592%.
With `O=C(NC(=S)N1CCN(c2ccc(Cl)cc2[N+](=O)[O-])CC1)c1cccs1` the Potency was inconclusive [activator, single point].
In the case of `COc1ccc(CNC(=O)c2csc(Cc3ccc(Cl)cc3)n2)cc1`, the Potency is reported as inconclusive [activator, single point].
With `Cc1ccccc1Nc1nc(-c2ccccc2)c(C(=O)Nc2cccnc2)s1` the Potency was active: 23.1 µM.
For `N#C/C(=C\c1ccc(Br)s1)C(=O)N1CCN(c2ccccc2)CC1`, the Potency was inconclusive [activator, single point].
For `CCn1c(CNc2ccc(Cl)cc2)nnc1SCc1ccc(C)cc1`, the Potency was inconclusive [activator, partial curve, poor fit].
For `NNC(=O)c1cncn1-c1ccc(F)cc1`, the “activity, positive = re-replication” value was inactive: -2.45%.
In the case of `O=C(c1ccco1)N1CCN(c2c([N+](=O)[O-])nn(-c3cccc(Cl)c3)[n+]2[O-])CC1`, the “activity, positive = re-replication” value is reported as inactive: 2.51%.
For `O=C(NCCOc1ccccc1F)C1CC(=O)N(Cc2ccccc2)C1` (stereo unspecified), the “activity, positive = re-replication” value was inactive: -2.38%.
In the case of `C=CCN(CC=C)S(=O)(=O)c1ccc2nc(NC(=O)C(C)C)sc2c1`, the Potency is reported as active: 8.2 µM.
In the case of `CC(=O)[C@H]1CC[C@H]2[C@@H]3CCC4=CC(=O)CC[C@]4(C)[C@H]3[C@H](O)C[C@]12C`, the Potency is reported as inconclusive [activator, partial curve, poor fit].
In the case of `CCOC(=O)Cc1c(Sc2ccccc2)c2ccccc2n1C`, the Potency is reported as inconclusive [activator, partial curve].
For `CNc1nc2c(-c3ccc(Cl)cc3)nnn2c2ccccc12`, the Potency was inconclusive [activator, full curve].
In the case of `Clc1ccc(Cn2ncc3c(NCc4ccccc4)ncnc32)c(Cl)c1`, the Potency is reported as inconclusive [activator, single point].
With `Cc1ccc(OCc2cc(C(=O)N(C)CCc3ccccc3)no2)cc1C` the Potency was inconclusive [activator, single point].
For `CC(=O)NCCOC(=O)c1nn(Cc2ccccc2)c(=O)c2ccccc12`, the “activity, positive = re-replication” value was inactive: 8.37%.
With `Cc1cc(C)n(-c2cc(C(C)(C)C)nc3c(-c4ccc(Cl)cc4)cnn23)n1` the Potency was active: 23.1 µM.
With `COc1cccc(CNC(=O)c2cc3oc4ccccc4c3n2C)c1OC` the Potency was inconclusive [activator, full curve, poor fit].
With `O=C(NC1CCCCC1)N1CCNCC1` the Potency was inconclusive [activator, single point].
With `CCOC(=O)c1ccc(-c2cccc(-c3cc(=O)oc4cc(OC)cc(OC)c34)c2)cc1` the Potency was inconclusive [activator, partial curve, poor fit].
With `COc1ccccc1CNC(=O)c1cc(C2CC2)nc2c1cnn2C(C)C` the Potency was inconclusive [activator, single point].
With `CCC1CCCCN1S(=O)(=O)Cc1ccccc1Cl` (stereo unspecified) the Potency was inconclusive [activator, single point].
In the case of `N#Cc1ccccc1OCCn1cncn1`, the Potency is reported as inconclusive [activator, partial curve, poor fit].
With `COc1ccc(CCNC(=O)COC(=O)C2CC2C)cc1` (stereo unspecified) the “activity, positive = re-replication” value was inactive: -1.5%.
With `CC(=O)C1C(C)CC2C3CCC4CC(=O)CCC4(C)C3CCC21C` (stereo unspecified) the Potency was inconclusive [activator, partial curve, poor fit].
In the case of `CC(C)[C@@H](C(=O)N[C@@H](Cc1ccccc1)C(=O)O)N1C(=O)N2CCc3c([nH]c4ccccc34)[C@@]2(C)C1=O`, the “activity, positive = re-replication” value is reported as inactive: -0.979%.
In the case of `Cc1c(Cl)cccc1NC(=O)CN1CCC(C(O)(c2ccccc2)c2ccccc2)CC1`, the “activity, positive = re-replication” value is reported as inactive: 4.3%.
In the case of `O=[N+]([O-])c1cccc(C=NNc2ccc3ccccc3n2)c1O`, the Potency is reported as inconclusive [activator, partial curve, poor fit].
With `CC(C)c1ccc(S(=O)(=O)N2CCN(C(=O)CCNC(=O)Nc3ccccc3)CC2)cc1` the Potency was inconclusive [activator, single point].
In the case of `O=C(CC1NCCc2ccccc21)Nc1cccc(Cl)c1` (stereo unspecified), the Potency is reported as inconclusive [activator, single point].
In the case of `CC(C)C[C@H](NC(=O)c1nc[nH]c1C(=O)NCC(=O)OCc1ccccc1)C(=O)OCc1ccccc1`, the “activity, positive = re-replication” value is reported as inactive: 1.75%.
In the case of `CN(C)NC(=O)c1ccc([N+](=O)[O-])s1`, the “activity, positive = re-replication” value is reported as inactive: 11.9%.
In the case of `CCN(C[C@H]1N[C@@](Cc2ccccc2)(C(=O)OC)[C@H]2C(=O)N(Cc3ccccc3)C(=O)[C@@H]12)C(=O)Nc1ccc(C)cc1`, the Potency is reported as inconclusive [activator, partial curve, poor fit].
For `O=c1c2nccnc2[nH]c(=S)n1Cc1ccccc1`, the Potency was inconclusive [activator, partial curve].
With `Cc1ccccc1CN(C)CCS(=O)(=O)c1cc(Cl)ccc1Cl` the Potency was active: 9.2 µM.
For `Cc1ccc2nc(N3C(=O)CNC3=S)sc2c1`, the Potency was active: 18.4 µM.
For `CC1CCCCN1S(=O)(=O)c1ccc(C(=O)Nc2nnc(-c3cccs3)o2)cc1` (stereo unspecified), the Potency was inconclusive [activator, single point].
With `CCSc1ccc([C@@H]2[C@H]3C(=O)N(C)C(=O)[C@H]3[C@]3(C(=O)OC)CCCCN23)cc1` the Potency was inconclusive [activator, single point].
In the case of `Cc1ccc2cc(C#N)c(NCCNC(=O)C3CCC3)nc2c1C`, the Potency is reported as inconclusive [activator, single point].
For `COc1ccc(CN(CCC#N)CCC2(c3ccccc3)CC(C)N(C)CC2C)cc1OC` (stereo unspecified), the Potency was inconclusive [activator, single point].
For `CCN(Cc1ccccc1)S(=O)(=O)c1c(C)[nH]c(C)c1C(=O)N1CCCCC1`, the “activity, positive = re-replication” value was inactive: -0.27%.
In the case of `C/C(=N\Nc1ccc2nncn2n1)c1cccs1`, the Potency is reported as inconclusive [activator, single point].
With `FC(F)(F)c1cccc(NC(=S)NCC2COc3ccccc3O2)c1` (stereo unspecified) the Potency was inconclusive [activator, single point].
In the case of `COc1ccc(-c2csc3ncnc(N4CCN(Cc5ccccc5)CC4)c23)cc1`, the Potency is reported as inconclusive [activator, partial curve, poor fit].
With `COc1cc2nc(C3CCC3)n(NC(=O)C3CCC(OC)CC3)c(=O)c2cc1OC` (stereo unspecified) the “activity, positive = re-replication” value was inactive: -1.01%.
For `Cc1ccc(/C=C/C(=O)Nc2ccc([N+](=O)[O-])c(NC(=O)/C=C/c3ccc(C)o3)c2)o1`, the Potency was inconclusive [activator, partial curve].
In the case of `Cc1ccc2nc(-c3sc4nc(C)ccc4c3N)[nH]c2c1`, the Potency is reported as active: 16.4 µM.
In the case of `CC(/C=N/NC(=O)c1cc(-c2ccc(C)s2)[nH]n1)=C\c1ccccc1`, the Potency is reported as active: 6.51 µM.
For `Oc1ccc(NCc2ccccc2OCc2ccccc2F)cc1`, the Potency was inconclusive [activator, partial curve, poor fit].
With `Cc1ccc(CN(C(=O)COc2ccc(Br)cc2)C2CCS(=O)(=O)C2)o1` (stereo unspecified) the Potency was inconclusive [activator, partial curve, poor fit].
With `CCOc1ccc(S(=O)(=O)/N=C(/c2ccccc2)N(C)C)cc1` the “activity, positive = re-replication” value was inactive: -13.2%.
In the case of `OC[C@@H]1[C@@H](c2ccc(Cl)cc2)C(c2ccc(F)cc2)=NN1c1ccccc1`, the Potency is reported as active: 1.84 µM.
With `CCN(Cc1ccccc1)S(=O)(=O)c1cc(C(=O)NC2CCCCCC2)ccc1OC` the Potency was inconclusive [activator, single point].
For `CC(C)(C)c1cc(OC(=O)C2CCCC2)ccc1O`, the Potency was inconclusive [activator, single point].
For `CN(C(=O)CSc1nnc(-c2ccc(Cl)cc2)n1CC1CCCO1)C1CCS(=O)(=O)C1` (stereo unspecified), the “activity, positive = re-replication” value was inactive: 1.04%.
For `CCC(C)(C)C1CCc2[nH]nc(C(=O)O)c2C1` (stereo unspecified), the “activity, positive = re-replication” value was inactive: 18.5%.
In the case of `COc1cccc(OCCSc2nc(C)c(Cc3ccccc3)c(=O)[nH]2)c1`, the Potency is reported as inconclusive [activator, partial curve, poor fit].
With `COCCOC1CCN(C(=O)C2CCC(=O)N(CCc3ccc(OC)cc3)C2)CC1` (stereo unspecified) the “activity, positive = re-replication” value was inactive: 1.64%.
With `CCOC(=O)c1cc(NC(=O)c2ccoc2C)cc(C(=O)OCC)c1` the Potency was inconclusive [activator, partial curve, poor fit].
For `CC(=O)c1cnc(SCc2ccc(Cl)cc2)nc1C`, the Potency was inconclusive [activator, single point].
With `O=Nc1c2ccc[nH]c-2c2ccc([N+](=O)[O-])cc12` the “activity, positive = re-replication” value was inactive: -5.74%.
With `COc1ccc(C(=O)NC(=S)Nc2ccccc2[N+](=O)[O-])cc1OC` the “activity, positive = re-replication” value was inactive: -14.9%.
In the case of `COc1ccc(S(=O)(=O)N2CCOCC2)cc1NC(=O)C1CCN(S(=O)(=O)c2ccc(Cl)cc2)CC1`, the “activity, positive = re-replication” value is reported as inactive: 6.25%.

— PubChem BioAssay AID624296 (National Center for Advancing Translational Sciences (NCATS), 2012)
Potency is the fitted concentration of half-maximal effect; tags give direction and shape of the fitted curve.
